# Reference: PubChem BioAssay AID686979 (National Center for Advancing Translational Sciences (NCATS), 2013)
# About 50,000 (12%) of roughly 420,000 compounds were called active. This list was built around the results that the source calls inconclusive (neither active nor inactive); the mix of calls is not that of the screen. Calls come from the whole dose curve; as a rule, active = well fitted inhibition curve with a large enough effect; inconclusive = small, poorly fitted or top-dose-only effect; inactive = flat fitted curve, though single readings scatter. Potencies of inconclusive entries are left out as doubtful fits. The source holds several records for some structures; these can differ, active in one and inactive in another.
# Assay: qHTS for Inhibitors of human tyrosyl-DNA phosphodiesterase 1 (TDP1): qHTS in cells in presence of CPT; note: nearly all actives have a fitted effect of over 55% in size
# Details: chicken DT40 Tdp1-/-;hTDP1 cells + 20 nM CPT, ATP luminescence, 48 h; activity change, negative = growth inhibition: at 46.2 µM (top of the series) unless noted
# Summary of the method: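 Chicken DT40 Tdp1-/- cells stably complemented with human TDP1 were seeded at 400 cells/well in medium containing 20 nM camptothecin, exposed to pin-transferred compounds, and grown at 37 °C for at least 48 hr. Viability was read as ATP luminescence.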
# % is set by controls: 0 for no effect and ±100 for the full control effect; potency is the fitted concentration of half-maximal effect; tags give direction and shape of the fitted curve.
Compound,"activity change, negative = growth inhibition",Potency
CC(=O)Nc1ccc([As](=O)(O)c2ccc([N+](=O)[O-])cc2)cc1,inactive: 7.91%,
CN1C(=O)CCS(=O)(=O)C1c1ccc(Cl)cc1 (stereo not given),,inactive
CN(C(=O)CNC(=O)OCc1ccccc1)c1ccc(Br)cc1C(=O)c1ccccc1Cl,,active: 3.26 µM
CN1C(=O)N(C)C(=O)C2(Cc3cc([N+](=O)[O-])ccc3N(C)C2c2ccccc2)C1=O (stereo not given),,"inconclusive [inhibitor, partial curve]"
Cc1nc(C)c(C(=O)NN=Cc2ccc(N(CCCl)CCCl)cc2)s1,,"inconclusive [inhibitor, partial curve]"
CN(C)[C@@H]1C(=O)C(C(N)=O)=C(O)[C@@]2(O)C(=O)C3=C(O)c4c(O)cccc4[C@@](C)(O)[C@H]3[C@H](O)[C@@H]12,,active: 7.31 µM
C=CCNC(=O)c1c(N)n(Cc2ccco2)c2nc3ccccc3nc12,,active: 7.31 µM
CCOc1ccccc1NC(=O)c1sc2nc3c(cc2c1N)CN(Cc1ccccc1)CC3,,active: 16.4 µM
CN1CC(C(=O)c2ccccc2)C(c2ccccc2)C1 (stereo not given),,"inconclusive [inhibitor, single point]"
Cc1nc2c(C(=O)N3CCC4(CC3)OCCO4)cnn2c(C)c1Cc1cccc(Cl)c1,,"inconclusive [inhibitor, single point]"
CCOC(=O)[C@]12Cc3cc(C)ccc3[C@H]1N(C1CCCCC1)C(=O)c1cc(OC)ccc12,,active: 1.16 µM
C[C@]12C=CC(=O)C=C1CC[C@@H]1C2CC[C@]2(C)OC(=O)CCC12 (stereo not given in full),inactive: 0.599%,
O=C(CSC1c2ccccc2-c2ccccc21)N/N=C/c1ccccc1C(=O)O,inactive: 2.79%,
CCOC(=O)C1=C(N)OC2=C(C(=O)CC(C)(C)C2)C12C(=O)Nc1ccccc12 (stereo not given),inactive: -23.5%,
CCOC(=O)C(O)(c1ccc(NC(=O)NC2CCCCC2)cc1)C(F)(F)F (stereo not given),inactive: -24.1%,
Cc1c(C=O)c2ccccc2n1Cc1ccc([N+](=O)[O-])cc1,inconclusive: -35.1% [inhibitor],
N#CSCC(=O)N1c2ccccc2CCc2ccccc21,,active: 5.8 µM
C[n+]1c(-c2ccccc2)cc(CCCCc2cc(-c3ccccc3)[n+](C)c(-c3ccccc3)c2)cc1-c1ccccc1,,active: 2.59 µM
CCCCN=C[C@]12CCC(O)CC1(O)CCC1[C@@H]2CC[C@]2(C)[C@H](C3C=CC(=O)O3)CCC12O (stereo not given in full),,"inconclusive [inhibitor, single point]"
O=C(NC(O)C(Cl)(Cl)Cl)NC(O)C(Cl)(Cl)Cl (stereo not given),inactive: 7.41%,
COC(=O)C1=C(c2ccc(F)cc2OCc2ccccc2)C[C@@H]2CC[C@H]1N2C(=O)NCc1ccc(Br)cc1,,"inconclusive [inhibitor, single point]"
O=C(CN1CCCCC1)c1ccccc1Cl,inactive: -13.2%,
CC1CCN(C(=O)CCl)CC1,,"inconclusive [inhibitor, single point]"

Compound,"activity change, negative = growth inhibition",Potency
C[C@H]1CN([C@@H](C)CO)C(=O)c2cc(NC(=O)C3CCCCC3)ccc2O[C@H]1CN(C)Cc1ccc(-c2ccccc2)cc1,,"inconclusive [inhibitor, single point]"
O=[N+]([O-])c1ccc(N2CCCC2)c2ccncc12,,"inconclusive [inhibitor, partial curve, poor fit]"
COC(=O)Cn1cc(/C=C2\C(=O)NC(=O)N(c3ccc(OC)cc3)C2=O)c2ccccc21,inconclusive: -30.5% [inhibitor],
O=C(COc1ccccc1F)N1CCN(Cc2cc(=O)n3nc(-c4ccccc4Cl)sc3n2)CC1,,"inconclusive [inhibitor, partial curve]"
CCN(CC)CCN1C(=O)CN=C(c2ccccc2F)c2cc(Cl)ccc21,,"inconclusive [inhibitor, single point]"
Fc1ccc(C2=CCN(C(c3ccc(Cl)cc3)c3nnnn3Cc3ccccc3)CC2)cc1 (stereo not given),,"inconclusive [inhibitor, single point]"
CN1C2CCC1CC(OC(=O)c1cc(Cl)cc(Cl)c1)C2 (stereo not given),,active: 14.6 µM
CCC(=NCCCN1CCOCC1)c1c(O)n(Cc2ccccc2)c(=O)[nH]c1=O,,"inconclusive [inhibitor, full curve, poor fit]"
COC(=O)C1=C(c2ccccc2)C[C@@H]2CC[C@H]1N2C(=O)NCCNC(C)=O,inactive: 8.76%,
CC(C)(C)NC(=S)N1CCn2cccc2C1c1cccnc1 (stereo not given),inactive: 5.89%,
COc1cc([C@@H]2c3cc4c(cc3[C@H](OC(C)=O)[C@H]3COC(=O)[C@@H]23)OCO4)cc(OC)c1OC,,active: 1.12 µM
Cc1nnc2n1-c1ccc(Br)cc1C(c1ccccc1Cl)=NC2,,"inconclusive [inhibitor, partial curve]"
CCOC(=O)CNC(=O)CNC(=O)c1nn(-c2ccc(OC)c(Cl)c2)c(=O)c2ccccc12,,"inconclusive [inhibitor, single point]"
CC(C)CCOP(=O)(c1ccc(N(C)C)cc1)C(O)c1ccc(C(C)C)cc1 (stereo not given),,"inconclusive [inhibitor, single point]"
CC(C)COP(=O)(OCC(C)C)C(Nc1ccccc1)c1ccccc1 (stereo not given),,"inconclusive [inhibitor, single point]"
On1ccccc1=S,,active: 0.13 µM
COCCOC(=O)c1c(N)n(Cc2ccccc2)c2nc3ccccc3nc12,,"inconclusive [inhibitor, single point]"
CSc1cccc(CNC(=O)C2CCC(=O)N(Cc3cccc(C(F)(F)F)c3)C2)c1 (stereo not given),,"inconclusive [inhibitor, single point]"
Cc1cccc(CN2CC=C(c3noc(CCC(=O)Nc4ccc(C)c(F)c4)n3)CC2)c1,,active: 16.4 µM
COC(=O)C1=C(c2ccc(OCc3ccccc3)cc2)C[C@@H]2CC[C@H]1N2C(=O)NCc1ccc2[nH]ccc2c1,,"inconclusive [inhibitor, single point]"
Cc1ccc(-n2sc3ccccc3c2=O)cc1,,active: 2.91 µM
O=[N+]([O-])c1ccc(N2CCCCCC2)c2nonc12,,"inconclusive [inhibitor, single point]"
